Laboratory results reported in paper PMC7819943, “Rice protein-binding microarrays: a tool to detect cis-acting elements near promoter regions in rice”.
This is one part of the list.

Target: T1, OsWOX13 (Oryza sativa, UniProt Q5QMM3 1-267)
T1 sequence: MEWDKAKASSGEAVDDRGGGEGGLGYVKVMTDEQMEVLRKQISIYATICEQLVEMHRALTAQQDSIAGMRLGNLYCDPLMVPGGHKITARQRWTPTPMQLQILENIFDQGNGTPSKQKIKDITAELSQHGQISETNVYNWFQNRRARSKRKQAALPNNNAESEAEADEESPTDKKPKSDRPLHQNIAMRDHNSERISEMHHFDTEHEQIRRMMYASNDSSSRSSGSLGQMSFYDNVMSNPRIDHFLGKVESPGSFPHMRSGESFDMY
Test: protein-binding microarray (RPBM); PBS, 2% BSA, 51.3 ng/ul salmon testes DNA, 50 uM zinc acetate, 200 nM TF, 25 C, 1 h; high values mean tight binding
Conditions: protein: recombinant; tags: N-terminal polyhistidine and DsRed monomer fusion (pET32a); label: CyDye5-dUTP incorporated in the synthesized complementary strand; 3' TTTTT single-stranded linker to array surface; dsDNA, one strand shown
Method in brief: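 Binding signal is reported as fluorescence intensity per feature (arbitrary units) from an Axon 4000B scanner. Incubation used 200 nM of each Ni–NTA-purified, N-terminally polyhistidine- and DsRed-fused transcription factor from E. coli BL21-CodonPlus on a double-stranded custom Agilent array for 1 h at 25 °C, with 50 µM zinc acetate in the buffer, followed by washing.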

Sequence	binding signal
TTTAGACACTAATTTAGAGTATTAAATATATACTACTTATCGGAGTCACCTAGTGCAG	10800 fluorescence intensity (a.u.)
ACTGCATTTAATTATGATCTGCCTATCTTTATATAAGTGCCGGAGTCACCTAGTGCAG	12700 fluorescence intensity (a.u.)
AGTAAATGAGCATCATTGAATGCGCTGCACACATGTAATGCGGAGTCACCTAGTGCAG	6240 fluorescence intensity (a.u.)
GTAATTAATGTTTATGCATGGGTTTAAAATTGTAGATGGACGGAGTCACCTAGTGCAG	9780 fluorescence intensity (a.u.)
CTGGTTAATTACTCTTGTTAAGAAATTGTTAGTGAAGTAACGGAGTCACCTAGTGCAG	16400 fluorescence intensity (a.u.)
AAGAGTTAGATGGCATCAATCAAGCTCGCGGAGGCTGACCCGGAGTCACCTAGTGCAG	11100 fluorescence intensity (a.u.)
TTATTAACTGAAATTACGTAAATGCCCCTCCCTTTCTTTTCGGAGTCACCTAGTGCAG	8870 fluorescence intensity (a.u.)
TACACAGATTGCGACTAATTTGTGAGACGAATCTTTTAAGCGGAGTCACCTAGTGCAG	15400 fluorescence intensity (a.u.)
GGTGATGGATCCCCACATTGTCGTCGCGTCCCCTCCCATCCGGAGTCACCTAGTGCAG	3940 fluorescence intensity (a.u.)
TATATATATATATATATATATATATATATAACCATGCAGCCGGAGTCACCTAGTGCAG	11200 fluorescence intensity (a.u.)
CTATGATTAGATAATGTTTACTGTAGCATCACATAGGCTACGGAGTCACCTAGTGCAG	47300 fluorescence intensity (a.u.)
CCACAGTAGATTGACCCATTTTAATGTGTTAGGATGCTGCCGGAGTCACCTAGTGCAG	22900 fluorescence intensity (a.u.)
ATGACCCCTTGATTGCATAACACACATACTAGGTCATACTCGGAGTCACCTAGTGCAG	17800 fluorescence intensity (a.u.)
TCCAATCATTGCAGGATAGATGCCGTCGTCTTCTTGGAGACGGAGTCACCTAGTGCAG	13800 fluorescence intensity (a.u.)
CAAATTGAGAGAAACATGCAGATTGAGCATGATTAGGGTACGGAGTCACCTAGTGCAG	22600 fluorescence intensity (a.u.)
TGGGCTCCAATTTCAATTTCGATTTGAATTGCAATTTCGACGGAGTCACCTAGTGCAG	4960 fluorescence intensity (a.u.)
ATGATGGTCGTTTAATTCTTCAATTCAATTTATTTGGTTGCGGAGTCACCTAGTGCAG	4090 fluorescence intensity (a.u.)
TGTTGATGAGAAGTACTACTACATTATCTGGAAACTCTGCCGGAGTCACCTAGTGCAG	7530 fluorescence intensity (a.u.)
TTCTGAATTATGGATGACAAAATTTGATGAAAATCACACGCGGAGTCACCTAGTGCAG	8250 fluorescence intensity (a.u.)
CGGTCCAATTGTTGATTTAAAAGATTAGGTCGGATAGATCCGGAGTCACCTAGTGCAG	8490 fluorescence intensity (a.u.)
TTGGAAATCCAATCTATTTTCTCGTATTCGTGTGGGAAATCGGAGTCACCTAGTGCAG	3660 fluorescence intensity (a.u.)

Sequence	binding signal
GTTTGATGAGTCCGGAATAGCATATAGCACATGGAATTGGCGGAGTCACCTAGTGCAG	3510 fluorescence intensity (a.u.)
TCTAACTTGGTGACAAATTGAGGGATGTAAAGTGCACTTTCGGAGTCACCTAGTGCAG	5210 fluorescence intensity (a.u.)
CTAAATGATTACTTATGAAAGTTATATACTAAAGACCATGCGGAGTCACCTAGTGCAG	39500 fluorescence intensity (a.u.)
AAGTGTGATTTCCTCGTTAGTTCGATACGTTTCACGTTTGCGGAGTCACCTAGTGCAG	7910 fluorescence intensity (a.u.)
TCGTCTCAATCAACGCAAACCACGGAAATACTCTGGCAAGCGGAGTCACCTAGTGCAG	26700 fluorescence intensity (a.u.)
ATCTCGCCTCTTTGCGCTTTCGCTGGAACCCTATTTCTCCCGGAGTCACCTAGTGCAG	3350 fluorescence intensity (a.u.)
GAAACCCATCCAATTAGTCAGATAGAGATATCCTGCCTTCCGGAGTCACCTAGTGCAG	5170 fluorescence intensity (a.u.)
TCGTTAAACTTGAGTTAATAGGATTACTATCCCGTTAAAACGGAGTCACCTAGTGCAG	6140 fluorescence intensity (a.u.)
TTGAATGGGAGGTGATTAGTGAGATAAGTATTACTCTAGACGGAGTCACCTAGTGCAG	3220 fluorescence intensity (a.u.)
TACAATTAGACAATTAATTATTTCGGTAGAGACTGGAAACCGGAGTCACCTAGTGCAG	36500 fluorescence intensity (a.u.)
CACATCGTTTCAATTTCAATCAAACTTCCAATGTTGACGTCGGAGTCACCTAGTGCAG	8280 fluorescence intensity (a.u.)
ATACATCCACCAATCACCATGCAAGTTACCCTCCATCCAGCGGAGTCACCTAGTGCAG	3730 fluorescence intensity (a.u.)
ATACTTATATGTAAATTGAATATATTCACTGACAAGATGCCGGAGTCACCTAGTGCAG	7940 fluorescence intensity (a.u.)
GGTCAAAACTGGGATTAAATTTGTGAGGGTGGTGGCCTTGCGGAGTCACCTAGTGCAG	9940 fluorescence intensity (a.u.)
GAGAGATTGATCAGCAGCTGGTTCATATTGCATTTGAATACGGAGTCACCTAGTGCAG	20600 fluorescence intensity (a.u.)
AACTGATTAGACCAATCAAGTACAGACCAAGGAGCATCATCGGAGTCACCTAGTGCAG	20900 fluorescence intensity (a.u.)
AAATTTAATATTGAAAATTTAAATTTTGGATGATAAGCATCGGAGTCACCTAGTGCAG	4150 fluorescence intensity (a.u.)
AACTAATCTTTAACTTATAATTTCTCATATACTATAATGTCGGAGTCACCTAGTGCAG	5510 fluorescence intensity (a.u.)
CTATTAAATTAGAGAATAACTTCAAAAGCAATTATTGAGACGGAGTCACCTAGTGCAG	6740 fluorescence intensity (a.u.)
CCTCATCCCTGATTGTGATTTTCTTTCCACACCACCCGGACGGAGTCACCTAGTGCAG	19500 fluorescence intensity (a.u.)
TCCCCAAACATGTCCTAATTAAGACTCTCAAGGAGTAGTACGGAGTCACCTAGTGCAG	4300 fluorescence intensity (a.u.)
